# From PubChem BioAssay (Tox21)
# Values joined by “and” are separate entries in the source; they are usually repeats but may differ in a detail not shown here. Equal values may be shown once. Inconclusive results, whose numbers are uncertain, are shown with a selection of clear calls. For some assays here: Potencies beside an inconclusive call are fits to weak or partial responses and may not hold up. Active and inactive are the calls of the source. Unless noted, calls follow the shape of the dose curve; as a rule, active = well fitted curve in the direction sought with a large enough effect in the repeat runs; inconclusive = weak or mixed curves; inactive = no such curve, though single readings can be large; an effect the other way counts as inactive or inconclusive.
# Assays:
# [1] = qHTS assay to identify small molecule antagonists of the estrogen receptor beta (ER-beta) signaling pathway - cell viability counter screen (AID 1259382); details: ER-beta-UAS-bla HEK293T viability, CellTiter-Glo luminescence, 16 h; series mostly up to 92.4 µM; also: nearly all actives have a fitted effect of over 55% in size
# In short: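 Readout: luminescence, CellTiter-Glo, same wells as bla assay. System: ER-beta-UAS-bla GripTite HEK293T, 2% charcoal-stripped FBS. Exposure: compounds plus 1nM 17-beta-estradiol, 16 hr, 37C.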
# [2] = target: Thyrotropin receptor (Homo sapiens) (UniProt P16473); test: qHTS assay to identify small molecule antagonists of the thyroid stimulating hormone receptor (TSHR) signaling pathway (AID 1259385; calls by dose curve; also: nearly all actives have a fitted effect of over 20% in size); details: TSHR-HEK293 cAMP HTRF, TSH-stimulated antagonist mode; activity change, negative = inhibition: at 92.4 µM (top of the series) unless noted
# In short: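 Antagonist mode: compound-treated TSHR-expressing HEK293 cells were stimulated with 1.5 ng/mL TSH (final) in presence of Ro20-1724 for 30 min at RT. HTRF cAMP detection after 1 h; each compound tested at 15 concentrations, triplicate.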
# [3] = qHTS assay to identify small molecule agonists of the estrogen receptor alpha (ER-alpha) signaling pathway in the presence of an antagonist - cell viability counter screen (AID 1259386); details: VM7Luc4E2 viability, CellTiter-Fluor fluorescence, 22 h; series mostly up to 92.4 µM;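 also: cells exposed to compounds for 22 h at 37 °C before the viability read; nearly all actives have a fitted effect of over 30% in size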
# In short: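 The test measures whether compounds kill ER-alpha reporter cells (VM7Luc4E2) under antagonist co-treatment (ICI-182,780, 10.0nM). Fluorescence from CellTiter-Fluor is read after a 22hr exposure.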
# [4] = target: Progesterone receptor (Homo sapiens) (UniProt P06401); test: qHTS assay to identify small molecule agonists of the progesterone receptor (PR) signaling pathway (AID 1346784; calls by dose curve; also: nearly all actives have a fitted effect of over 30% in size; as to activation: % is scaled to controls: 0 for no effect and ±100 for the full control effect); details: PR-UAS-bla HEK293T, beta-lactamase FRET ratio, 16 h; activation: at 92.4 µM (top of the series) unless noted
# In short: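 HEK 293T PR-UAS-bla reporter cells, 2% charcoal-stripped FBS; 6 hr settle at 37C/5% CO2, compound (DMSO) 16 hr, LiveBLAzer B/G FRET substrate 2 hr RT, fluorescence intensity read.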
# [5] = target: Progesterone receptor (Homo sapiens) (UniProt P06401); test: qHTS assay to identify small molecule antagonists of the progesterone receptor (PR) signaling pathway (AID 1346795; active = well fitted inhibition curve with a large enough effect in the signal ratio in the repeat runs, not every such curve was filed as active; inconclusive = weak or mixed curves; the % refers to the signal ratio); details: PR-UAS-bla HEK293T, beta-lactamase FRET ratio, 16 h; activity change, negative = inhibition: at 92.4 µM (top of the series) unless noted
# In short: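 Beta-lactamase reporter, HEK293T PR-UAS-bla line; 2% charcoal-stripped FBS; 6 hr pre-incubation, 37C/5% CO2. Compound + R5020 1 nM final, 16 hr. LiveBLAzer B/G FRET substrate, 2 hr RT; fluorescence intensity read.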
# [6] = qHTS assay to identify small molecule antagonists of the progesterone receptor (PR) signaling pathway - cell viability counter screen (AID 1346798); details: PR-UAS-bla HEK293T viability, CellTiter-Glo luminescence, 16 h; series mostly up to 92.4 µM; also: nearly all actives have a fitted effect of over 50% in size
# In short: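 Luminescence readout (CellTiter-Glo, 30 min, RT) of viability in PR-UAS-bla HEK293T cells exposed to compound and R5020 agonist for 16 hr at 37C, 5% CO2; run in the same wells as the beta-lactamase reporter read.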
# [7] = qHTS assay to identify small molecule agonists of the progesterone receptor (PR) signaling pathway - cell viability counter screen (AID 1346799; calls by dose curve; also: nearly all actives have a fitted effect of over 45% in size); details: PR-UAS-bla HEK293T viability, CellTiter-Glo luminescence, 16 h; series mostly up to 92.4 µM
# In short: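 HEK293T PR-UAS-bla, 3,000 cells/well, 2% charcoal-stripped FBS; 6 h settle, compound 16 h at 37C/5% CO2; LiveBLAzer 2 h RT, then CellTiter-Glo 30 min RT, luminescence read.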
# [8] = qHTS assay to identify small molecule antagonists of the TGF-beta/Smad signaling pathway - cell viability counter screen (AID 1346824); details: SBE-bla HEK293T viability, CellTiter-Glo luminescence; series mostly up to 76.8 µM; also: nearly all actives have a fitted effect of over 50% in size
# In short: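 Cytotoxicity counter-screen run in the same wells as the beta-lactamase Smad reporter read: CellTiter-Glo luminescence after 30 min at room temperature. HEK 293T SBE-bla cells had 5 hr compound exposure at 37 C with TGF-beta1 (0.25 ng/mL stock).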
# [9] = qHTS assay to identify small molecule agonists of the TGF-beta/Smad signaling pathway (AID 1346859; active = well fitted activation curve with a large enough effect in the signal ratio in the repeat runs, not every such curve was filed as active; inconclusive = weak or mixed curves; the % refers to the signal ratio); details: SBE-bla HEK293T, TGF-beta/Smad beta-lactamase reporter, 5 h; activation: at 76.8 µM (top of the series)
# In short: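 Read-out: fluorescence at 460 and 530 nm (405 nm excitation) after a 2 hr room-temperature incubation with beta-lactamase FRET substrate. SBE-bla HEK 293T cells had been treated with test compounds for 5 hr at 37 C.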
# [10] = qHTS assay to identify small molecule antagonists of the TGF-beta/Smad signaling pathway (AID 1346924; active = well fitted inhibition curve with a large enough effect in the signal ratio in the repeat runs, not every such curve was filed as active; inconclusive = weak or mixed curves; the % refers to the signal ratio); details: SBE-bla HEK293T, TGF-beta/Smad reporter, beta-lactamase ratio; activity, negative = inhibition: at 76.8 µM (top of the series) unless noted
# In short: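 Read-out was FRET-substrate fluorescence (405 nm excitation; 460 and 530 nm emission) after 2 h at room temperature. Before that, cells carrying a Smad-binding-element beta-lactamase reporter in HEK 293T had been stimulated 5 h at 37 C with TGF-beta1 (0.25 ng/mL addition solution) in the presence of test compound.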
# [11] = Caspase-3/7 induction in CHO-K1 cells by small molecules, qHTS assay (AID 1346980); details: CHO-K1 caspase-3/7 induction, Caspase-Glo luminescence, 17 h; series mostly up to 92.4 µM; also: nearly all actives have a fitted effect of over 15% in size
# In short: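 Luminescent Caspase-Glo 3/7 read (30min, room temperature) quantified apoptosis induction. Cells were wild-type CHO-K1, treated with compound for 17hr at 37 C and 5% CO2.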
# [12] = target: Thyrotropin-releasing hormone receptor (Homo sapiens) (UniProt P34981); test: qHTS assay to identify small molecule antagonists of the thyrotropin-releasing hormone receptor (TRHR) signaling pathway (AID 1346877; active = well fitted inhibition curve with a large enough effect in the repeat runs, not every such curve was filed as active; inconclusive = weak or mixed curves); details: TRHR-HEK293, TRH-induced calcium fluorescence, antagonist mode; series mostly up to 51.3 µM
# In short: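 Overnight-plated (18 h, 37 °C) HEK293 cells expressing TRHR were dye-loaded 2 h, treated with compound, then stimulated with TRH at 1 nM final. Fluorescence intensity was captured every second for 3 min.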
# [13] = Human pregnane X receptor (PXR) small molecule agonists, qHTS cell viability counter screen (AID 1346977); details: PXR-Luc HepG2 viability, CellTiter-Fluor, 24 h; series mostly up to 92.4 µM; also: nearly all actives have a fitted effect of over 50% in size
# In short: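 Fluorescence read-out (CellTiter-Fluor) of viability in PXR-Luc HepG2 cells, multiplexed with the luciferase agonist read. Compounds in DMSO added after 5hr plating; 24hr total exposure at 37C, 5% CO2.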
# [14] = qHTS assay to identify small molecule agonists of the TGF-beta/Smad signaling pathway - cell viability counter screen (AID 1346829); details: SBE-bla HEK293T viability, CellTiter-Glo luminescence, 5 h; series mostly up to 76.8 µM; also: nearly all actives have a fitted effect of over 45% in size
# In short: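 CellTiter-Glo luminescence readout; SBE-bla HEK 293T cells, overnight plating, compound 5 hr at 37 C/5% CO2, then bla substrate 2 hr RT, then CellTiter-Glo 30 min RT.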
# [15] = qHTS assay to identify small molecule agonists of the estrogen receptor beta (ER-beta) signaling pathway - cell viability counter screen (AID 1259380); details: ER-beta-bla HEK293T viability, CellTiter-Glo luminescence, 16 h; series mostly up to 92.4 µM; also: nearly all actives have a fitted effect of over 30% in size
# In short: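 Measured: luminescence from CellTiter-Glo after 30 min at room temperature, added to wells already read for the LiveBLAzer FRET reporter (2 hr substrate); ER-beta-UAS-bla HEK293T cells had 16 hr compound treatment at 37C, 5% CO2.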
# [16] = qHTS assay to identify small molecule agonists or antagonists of the thyroid stimulating hormone receptor (TSHR) signaling pathway - wild type cell line counter screen (AID 1259384; calls by dose curve); details: HEK293 wild type, cAMP HTRF counter-screen; cAMP activity change: at 92.4 µM (top of the series), stronger effect = higher value unless noted
# In short: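 Counter screen in untransfected Hek293: compounds (15-point titration, triplicate) plus phosphodiesterase inhibitor Ro20-1724 added after 18 h plating; 30 min RT. Intracellular cAMP via competitive d2/cryptate immunoassay, 1 h incubation.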
# [17] = target: Thyrotropin-releasing hormone receptor (Homo sapiens) (UniProt P34981); test: qHTS assay to identify small molecule agonists of the thyrotropin-releasing hormone receptor (TRHR) signaling pathway (AID 1346891; calls by dose curve); details: TRHR-HEK293 calcium fluorescence, agonist mode; series mostly up to 57.6 µM
# In short: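 HEK293/TRHR cells, 1500 per well, 18 h 37 °C; Ca dye 2 h 37 °C; pin-tool compound addition (agonist mode); kinetic fluorescence 3 min, 1 s reads; 15 concentrations, triplicate.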
# [18] = Caspase-3/7 induction in CHO-K1 cells by small molecules, qHTS cell viability counter screen (AID 1346979); details: CellTiter-Fluor fluorescence, 17 h; series mostly up to 92.4 µM; also: nearly all actives have a fitted effect of over 35% in size
# In short: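 CHO-K1 wt, 1,500 cells/well; 5hr pre-incubation 37C/5% CO2; compound pin transfer (DMSO); 16hr exposure; CellTiter-Fluor added, 1hr, fluorescence read.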
# Potency is read from the fitted curve at half-maximal effect; tags tell the direction and shape of the fitted curve or compound fluorescence and quenching.
# Sequence of UniProt P16473 (P16473 whole entry, looked up): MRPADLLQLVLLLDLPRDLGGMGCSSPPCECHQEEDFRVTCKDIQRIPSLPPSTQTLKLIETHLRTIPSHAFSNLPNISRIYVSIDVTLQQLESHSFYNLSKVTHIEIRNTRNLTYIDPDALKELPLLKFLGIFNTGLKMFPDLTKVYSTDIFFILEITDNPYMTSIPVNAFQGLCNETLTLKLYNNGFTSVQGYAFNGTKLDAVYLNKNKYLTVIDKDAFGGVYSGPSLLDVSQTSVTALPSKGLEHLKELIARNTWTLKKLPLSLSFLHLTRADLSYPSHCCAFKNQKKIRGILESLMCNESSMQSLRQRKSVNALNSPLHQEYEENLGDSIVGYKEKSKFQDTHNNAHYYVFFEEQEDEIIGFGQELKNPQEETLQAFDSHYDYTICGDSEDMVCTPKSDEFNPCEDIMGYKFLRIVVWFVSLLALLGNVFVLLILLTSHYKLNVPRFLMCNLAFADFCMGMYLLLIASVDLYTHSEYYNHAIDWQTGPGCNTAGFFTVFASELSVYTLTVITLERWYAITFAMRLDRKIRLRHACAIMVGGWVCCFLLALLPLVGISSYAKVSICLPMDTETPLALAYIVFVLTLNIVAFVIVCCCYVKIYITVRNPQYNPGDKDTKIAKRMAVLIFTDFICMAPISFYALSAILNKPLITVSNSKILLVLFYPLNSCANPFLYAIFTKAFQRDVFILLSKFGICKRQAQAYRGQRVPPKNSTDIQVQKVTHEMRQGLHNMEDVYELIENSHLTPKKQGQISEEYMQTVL
# Sequence of UniProt P06401 (P06401 whole entry, looked up): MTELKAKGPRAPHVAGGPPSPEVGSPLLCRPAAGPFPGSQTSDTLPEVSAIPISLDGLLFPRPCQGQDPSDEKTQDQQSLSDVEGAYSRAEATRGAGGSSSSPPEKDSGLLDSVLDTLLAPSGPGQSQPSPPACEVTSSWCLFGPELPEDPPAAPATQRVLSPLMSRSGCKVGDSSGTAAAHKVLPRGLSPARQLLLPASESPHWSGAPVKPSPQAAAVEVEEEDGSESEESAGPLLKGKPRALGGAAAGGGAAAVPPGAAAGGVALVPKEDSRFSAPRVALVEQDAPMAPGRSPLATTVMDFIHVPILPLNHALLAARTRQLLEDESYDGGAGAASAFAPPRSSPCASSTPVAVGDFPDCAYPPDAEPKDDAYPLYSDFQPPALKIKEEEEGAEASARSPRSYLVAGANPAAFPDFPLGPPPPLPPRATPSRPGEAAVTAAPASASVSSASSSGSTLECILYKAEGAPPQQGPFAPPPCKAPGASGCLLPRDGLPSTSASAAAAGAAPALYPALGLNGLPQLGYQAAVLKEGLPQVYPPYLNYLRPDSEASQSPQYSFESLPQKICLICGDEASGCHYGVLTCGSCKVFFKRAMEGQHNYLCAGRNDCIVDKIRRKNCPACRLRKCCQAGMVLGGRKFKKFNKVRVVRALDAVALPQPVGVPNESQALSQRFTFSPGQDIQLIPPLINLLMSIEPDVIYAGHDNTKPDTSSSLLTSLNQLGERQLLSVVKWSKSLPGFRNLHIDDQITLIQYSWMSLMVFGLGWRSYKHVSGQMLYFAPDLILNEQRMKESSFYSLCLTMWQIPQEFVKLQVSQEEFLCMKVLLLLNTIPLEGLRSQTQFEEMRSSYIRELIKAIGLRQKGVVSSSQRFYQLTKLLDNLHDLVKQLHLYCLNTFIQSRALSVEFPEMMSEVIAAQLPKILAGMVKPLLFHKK
# Sequence of UniProt P34981 (P34981 whole entry, looked up): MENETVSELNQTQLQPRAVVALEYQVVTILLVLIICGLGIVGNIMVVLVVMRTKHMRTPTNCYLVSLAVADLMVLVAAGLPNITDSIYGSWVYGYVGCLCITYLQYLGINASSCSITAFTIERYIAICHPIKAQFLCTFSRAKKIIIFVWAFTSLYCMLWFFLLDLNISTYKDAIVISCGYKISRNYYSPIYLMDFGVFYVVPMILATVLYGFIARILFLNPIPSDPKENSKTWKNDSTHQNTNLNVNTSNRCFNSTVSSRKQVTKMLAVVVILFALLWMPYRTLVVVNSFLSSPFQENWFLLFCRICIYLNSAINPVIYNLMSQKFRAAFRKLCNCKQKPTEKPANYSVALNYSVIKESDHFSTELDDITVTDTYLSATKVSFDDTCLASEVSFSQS
smiles,measurement,setting,value
O=[N+]([O-])c1cc(C(F)(F)F)c(Cl)c([N+](=O)[O-])c1Cl,Potency,[1],active: 30.6 µM
same,Potency,[2],active: 61.1 µM
same,Potency,[3],active: 54.5 µM
same,activation,[4],inconclusive: -21.3%
same,Potency,[5],"inconclusive: 1.37 µM [falling, single point]"
same,Potency,[6],active: 54.5 µM
same,Potency,[7],"inconclusive: 17.2 µM [cytotoxic, single point]"
same,Potency,[8],active: 49 µM
same,Potency,[9],"inconclusive: 21.9 µM [rising, partial curve]"
same,Potency,[10],"inconclusive: 24.5 µM [rising, partial curve]"
same,Potency,[11],active: 1.93 µM
N#CCCC(Br)(C#N)CBr (stereo unspecified),Potency,[1],"inconclusive: 54.5 µM [cytotoxic, partial curve]"
same,Potency,[2],active: 54.5 µM
same,Potency,[3],"inconclusive: 6.11 µM [cytotoxic, partial curve, poor fit]"
same,activation,[4],inconclusive: -18.8%
same,Potency,[5],inconclusive: 68.6 µM
same,Potency,[7],inactive
same,Potency,[12],"inconclusive: 38 µM [inhibitor, single point]"
same,"activity, negative = inhibition",[10],inconclusive: -11.4%
same,Potency,[13],"inconclusive: 27.3 µM [cytotoxic, full curve]"
CCCCCCCC[N+](C)(CCCCCCCC)CCCCCCCC,Potency,[1],active: 12.2 µM and active: 43.3 µM and active: 24.3 µM
same,Potency,[2],"inconclusive: 68.6 µM [falling, single point]"
same,Potency,[4],"inconclusive: 27.3 µM [cytotoxic] and inconclusive: 27.3 µM [cytotoxic, full curve]"
same,Potency,[6],"active: 30.6 µM and inconclusive: 612 nM [cytotoxic, single point] and inconclusive: 30.6 µM [cytotoxic, full curve, poor fit]"
same,Potency,[8],"active: 15.5 µM and inconclusive: 1.74 µM [cytotoxic, full curve, poor fit] and active: 49 µM"
same,Potency,[14],"inconclusive: 8.69 µM [cytotoxic, full curve] and inconclusive: 1.95 µM [cytotoxic] and active: 49 µM"
same,Potency,[11],"inconclusive: 27.3 µM [activator, single point] and active: 12.2 µM and active: 13.7 µM"
CC(C)(c1ccccc1)c1ccc(O)c(C(C)(C)c2ccccc2)c1,Potency,[1],active: 24.1 µM and active: 30.6 µM
same,Potency,[2],"inconclusive: 61.1 µM [falling, partial curve]"
same,Potency,[3],inconclusive: 68.6 µM [cytotoxic]
same,Potency,[4],inconclusive: 60.6 µM [cytotoxic] and inconclusive: 30.6 µM [cytotoxic]
same,Potency,[5],"inconclusive: 48.1 µM [falling, partial curve, poor fit] and inconclusive: 61.1 µM [falling, partial curve, poor fit]"
same,Potency,[6],active: 17.1 µM and active: 48.6 µM
same,Potency,[7],active: 42.9 µM and active: 27.3 µM
same,Potency,[8],active: 54.4 µM and active: 43.6 µM
same,Potency,[12],"inconclusive: 33.5 µM [inhibitor, single point]"
same,Potency,[10],inconclusive: 19.3 µM
same,Potency,[11],active: 27.1 µM and active: 61.1 µM
CCCCCCCCCCCCCCC(Br)C(=O)O (stereo unspecified),Potency,[15],"inconclusive: 43.3 µM [cytotoxic, partial curve, poor fit]"
same,Potency,[7],"inconclusive: 1.22 µM [cytotoxic, full curve, poor fit]"
same,Potency,[13],inactive
CC(O)C(=O)[O][Hg][c]1ccccc1 (stereo unspecified),Potency,[1],active: 4.33 µM
same,Potency,[16],active: 5.66 µM
same,Potency,[2],active: 54.5 µM
same,Potency,[4],"inconclusive: 3.86 µM [cytotoxic, full curve]"
same,Potency,[5],"inconclusive: 6.86 µM [rising, partial curve]"
same,Potency,[6],active: 4.86 µM
same,Potency,[7],active: 4.86 µM
same,Potency,[8],active: 9.77 µM
same,Potency,[14],active: 17.4 µM
same,Potency,[9],"inconclusive: 27.5 µM [rising, partial curve, poor fit]"
same,Potency,[12],"inconclusive: 38 µM [inhibitor, single point]"
same,Potency,[17],inconclusive: 38.9 µM [activator]
same,Potency,[10],"inconclusive: 21.9 µM [rising, partial curve]"
same,Potency,[13],active: 1.93 µM
same,Potency,[18],active: 1.09 µM
